Source: PubChem BioAssay (NCATS)
The shares of active, inactive and inconclusive entries below differ from those in the screen. No potency is given beside an inconclusive call; the fits are too rough. Calls of active or inactive are those of the source. Calls come from the whole dose curve; as a rule, active = well fitted inhibition curve with a large enough effect; inconclusive = small, poorly fitted or top-dose-only effect; inactive = no such curve, though single readings can be large or run the other way.

assay: BET inhibitor-based combinations targeting novel dependencies in MECOM-rearranged (r) AML: OCI-AML3 cell line (AID 2202232); settings: CellTiter-Glo luminescence, 48 h; Potency: OCI-AML3 viability; series mostly up to 46 µM; note: nearly all actives have a fitted effect of over 35% in size
Excerpt: Ecotropic viral insertion site 1 (EVI1) is located on chromosome 3q26.2 as part of the MECOM (MDS and EVI1 complex) locus. Under normal hematopoiesis, EVI1 is a regulator of hematopoietic stem cell maintenance and self-renewal and EVI1 levels decrease as the cells differentiate. In approximately 5-10% of de novo acute myeloid leukemia (AML) EVI1 is aberrantly expressed, including Chromosomal inv(3)(q21;q26.2) or t(3;3)(q21;q26.2) alterations (MECOM-r) that account for about 50% of AML with EVI1 overexpression 31. AMLs with high levels of EVI1 have a poor prognosis and an overall survival time averaging between 10-14 months. EVI1 overexpression confers resistance in leukemia cells, highlighting the need to develop new targeted therapies for EVI1 overexpressing AMLs.
Here, we performed an unbiased chemical drug screening by evaluating the single agent activity of a collection of 2,480 oncology-focused, approved and investigational drugs (NCATS Mechanism Interrogation Plates, MIPE v5.0) against a panel of seven AML cell lines. These included four MECOM-r cell-lines (AML-191, AML-194, UCSD-AML1 and HNT-34) and three non-MECOM-r AMLs (MV4-11, OCI-AML3 and SET-2). Exploiting the mechanistic redundancy built in the library, we identified target-level sensitivities in MECOM-r AML cells and relative activity as compared to other AML subtypes.
A collection of 2480 mechanistically annotated dugs (MIPE v5.0) was used to screen four 3q26.2 rearranged AML cell lines and three non-3q26.2 rearranged AML cell lines. This library purposely exploits redundancy by including multiple inhibitors of key onco-targets, while simultaneously encompassing mechanistic diversity, targeting more than 800 distinct mechanisms of action. Briefly, cells were seeded in 5 uL of growth media using a Multidrop Combi dispenser into 1536 well white polystyrene tissue culture treated plates (Corning) at a density of 500cells/well. For each cell-line, for each of the 2480 drugs in MIPE v5.0 library, an 11-point dose curve was generated via a 1536 pin-tool. Plates were incubated for 48 hr at standard incubator conditions, covered by a stainless steel gasketed lid to prevent evaporation. Cell viability was determined by luminescence based, Cell Titer Glo assay (Promega). In detail, 3 uL of Cell Titer Glo were added to each well and plates were incubated at room temperature for 15 min with a stainless-steel lid in place. Luminescence readings were taken using a Viewlux (PerkinElmer) with a 2 s exposure time per plate. Compound dose-response curves were normalized to DMSO and empty well controls on each plate. Quantitative drug activity data from dose-response curves was determined utilizing area Under the Curve (AUC) and Z-transformed AUC (Z-AUC, a mean-centering transformation applied to each individual cell-line screened).
Potency is the fitted concentration of half-maximal effect; tags give direction and shape of the fitted curve.

Compound | Potency
Cn1cncc1C(N)(c1ccc(Cl)cc1)c1ccc2c(c1)c(-c1cccc(Cl)c1)cc(=O)n2C (stereo not given) | inconclusive [inhibitor, partial curve, poor fit]
C[C@@H]1CC[C@@]2(OC1)OC1CC3C4CC=C5CC(O)CCC5(C)C4CCC3(C)C1[C@@H]2C (stereo not given in full) | inconclusive [inhibitor, partial curve, poor fit]
C=C1/C(=C\C=C2/CCC[C@]3(C)[C@@H]([C@H](C)CCCC(C)(C)O)CC[C@@H]23)C[C@@H](O)C[C@@H]1O | inconclusive [inhibitor, full curve, poor fit]
CCCOc1ccn2c(C(C)=O)cc(-c3ccccc3S(C)(=O)=O)c2c1 | inconclusive [inhibitor, partial curve, poor fit]
CC(=O)OC[C@@H]1O[C@@H](n2ccc(=O)[nH]c2=O)[C@H](OC(C)=O)[C@H]1OC(C)=O | inactive
NCCS(=O)(=O)O | inactive
c1ccc([C@H]2CN3CCSC3=N2)cc1 | inconclusive [inhibitor, single point]
Oc1ccc(Nc2nc(-c3ccc(Cl)cc3)cs2)cc1 | inconclusive [inhibitor, partial curve]
O=C(O)c1ccc(-c2c[nH]c3ncc(-c4ccccc4)cc23)cc1C1CCCC1 | inconclusive [inhibitor, single point]
Cc1ccc(S(=O)(=O)Nc2cc(C(F)(F)F)ccc2C(=O)Nc2nc(-c3ccccc3)cs2)cc1 | active: 7.42 µM
O=C(O)Cn1nnc(-c2cc(N3CCC(Oc4cc(F)ccc4Br)CC3)no2)n1 | inconclusive [inhibitor, full curve, poor fit]
O=C1NC(=O)/C(=C/c2ccc(-c3ccc(F)cc3O)o2)S1 | inconclusive [inhibitor, partial curve]
NC(=O)c1cnc2[nH]ccc2c1NC1C2CC3C[C@H]1CC(O)(C3)C2 (stereo not given in full) | inconclusive [inhibitor, full curve]
COc1ccc2c(Oc3ccc(NC(=O)c4c(C)n(CC(C)(C)O)n(-c5ccccc5)c4=O)cc3F)ccnc2c1 | inconclusive [inhibitor, partial curve, poor fit]
C=C1c2cccc(O)c2C(O)=C2C(=O)[C@@]3(O)C(O)=C(C(N)=O)C(=O)[C@@H](N(C)C)[C@@H]3[C@@H](O)[C@H]12 | inconclusive [inhibitor, full curve, poor fit]
Nc1nc(Nc2ccc(S(N)(=O)=O)cc2)nn1C(=O)c1c(F)cccc1F | active: 2.95 µM
COc1c(C)c2c(c(O)c1C/C=C(\C)CCC(=O)OCCN1CCOCC1)C(=O)OC2 | active: 1.32 µM
CCCCCCCCCCCCc1ccc(S(=O)(=O)Nc2nncs2)cc1 | inactive
Cn1nccc1Nc1nccc(-c2ccn([C@H](CO)c3ccc(Cl)c(F)c3)c(=O)c2)n1 | inconclusive [inhibitor, partial curve]
CC(C)Oc1ccc(C(=O)N[C@H](CNC(=O)CN(C)C)Cc2ccc(-c3cn4cccc([C@H](C)O)c4n3)cc2)cc1Cl | active: 0.263 µM

Compound | Potency
c1coc(CNc2ncnc3nc[nH]c23)c1 | inactive
COc1ccc(CNC(=O)Nc2ncc([N+](=O)[O-])s2)cc1 | inconclusive [inhibitor, single point]
N[C@@H](Cc1c[nH]c2ccc(O)cc12)C(=O)O | inactive
CC(C)(F)C[C@H](N[C@@H](c1ccc(-c2ccc(S(C)(=O)=O)cc2)cc1)C(F)(F)F)C(=O)NC1(C#N)CC1 | inactive
CCn1c(=O)c(-c2ccc(-c3cncs3)cc2Cl)cc2cnc(Nc3ccc(N4CCN(C)CC4)cc3)nc21 | inconclusive [inhibitor, full curve, poor fit]
CC(C)(NS(=O)(=O)c1ccc2c(Cl)cnc(N=C(N)N)c2c1)C(=O)O | inactive
CNC(=O)c1c(C)oc2cc(Oc3ncnc4cc(OC)c(OC)cc34)ccc12 | inactive
CCCc1nn(C)c2c(=O)[nH]c(-c3cc(S(=O)(=O)N4CCN(C)CC4)ccc3OCC)nc12 | inactive
CCNC(=O)Nc1ccc(Oc2ncnc(N)c2/C=N/OC)cc1Cl | inconclusive [inhibitor, partial curve, poor fit]
NC(=O)c1ccc(-c2nc(-c3ccc4c(c3)OCCO4)c(-c3ccccn3)[nH]2)cc1 | inconclusive [inhibitor, full curve, poor fit]
NC12CC3CC(CC(C3)C1)C2 | inconclusive [inhibitor, partial curve, poor fit]
COc1cc(N2CCN(C)CC2)ccc1Nc1nccc(-c2cn(C)c3cnccc23)n1 | active: 14.8 µM
COc1ccc(C2=N[C@H](c3ccc(Cl)cc3)[C@H](c3ccc(Cl)cc3)N2C(=O)N2CCNC(=O)C2)c(OC(C)C)c1 | inconclusive [inhibitor, full curve, poor fit]
O=C(NO)C1(CS(=O)(=O)c2ccc(Oc3ccc(Cl)cc3)cc2)CCOCC1 | inconclusive [inhibitor, partial curve, poor fit]
CS(=O)(=O)c1ccc(-c2cnc(N)c(C(=O)Nc3ccccc3)n2)cc1 | inconclusive [inhibitor, full curve]
COc1ccc2[nH]c3c(c2c1)CCN[C@]31CS[C@@H]2c3c(OC(C)=O)c(C)c4c(c3[C@H](COC1=O)N1[C@@H]2[C@H]2c3c(cc(C)c(OC)c3O)C[C@@H]([C@@H]1O)N2C)OCO4 | active: 0.0034 µM
CCNC(=O)[C@H]1O[C@@H](n2cnc3c(N)nc(NCCc4ccc(CCC(=O)O)cc4)nc32)[C@H](O)[C@@H]1O | inactive
O=C(Nc1ccccc1)Nc1ccc(-c2ccc(C(=O)[C@@H]3CCC[C@H]3C(=O)O)cc2)cc1 | inconclusive [inhibitor, full curve, poor fit]
OCCN1C[C@H](O)[C@@H](O)[C@H](O)[C@H]1CO | inactive
O=C(NCc1ccncc1)C12C[C@H]3C[C@@H](C1)CC(c1ccc(Cl)cc1)(C3)C2 | active: 20.9 µM
